Data reported in article PMC7975708.
Results are given in words; binding and its absence hold for the method and conditions named. For some assays here: In cells and extracts the contact can be indirect. Some results given as binding are weak or reduced against the parent protein; the word gives no strength. For some assays here: Where a sequence is shown, tags or fusion partners need not be part of it.

The chains behind the UniProt entries cited, without tags or fusion partners. Where a name states a change or a piece, a line headed by the entry shows the natural chain unless it says otherwise. A line that says so, or that is headed by a name, gives the form on record, which may keep a tag or linker. Residues count along the entry.
UniProt O95994: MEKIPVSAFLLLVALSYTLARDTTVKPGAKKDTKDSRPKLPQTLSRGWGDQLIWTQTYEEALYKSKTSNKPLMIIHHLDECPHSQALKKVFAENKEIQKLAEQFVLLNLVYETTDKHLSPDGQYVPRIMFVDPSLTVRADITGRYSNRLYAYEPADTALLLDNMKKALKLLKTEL
Anterior gradient 2 (AGR2), endogenous in Huh7 cells (human (endogenous in Huh7)): residues 21-175 of O95994
AGR2-C81A from an expression plasmid in HepG2 cells (O95994, form named): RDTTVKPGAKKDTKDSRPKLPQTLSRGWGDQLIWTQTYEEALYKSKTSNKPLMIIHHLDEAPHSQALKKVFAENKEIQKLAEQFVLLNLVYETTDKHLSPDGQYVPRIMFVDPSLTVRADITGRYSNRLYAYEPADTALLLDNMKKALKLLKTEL

T1: fatty acid binding protein-1 (FABP1), endogenous in Huh7 and HepG2 cells (human (endogenous in Huh7 and HepG2)) (UniProt P07148)
T1 sequence: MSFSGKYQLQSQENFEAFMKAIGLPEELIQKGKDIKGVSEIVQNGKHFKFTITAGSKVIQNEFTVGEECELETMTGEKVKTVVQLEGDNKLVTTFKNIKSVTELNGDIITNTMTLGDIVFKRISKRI

T2: His-FABP1 protein (purified recombinant FABP1) (UniProt P07148)
T2 sequence: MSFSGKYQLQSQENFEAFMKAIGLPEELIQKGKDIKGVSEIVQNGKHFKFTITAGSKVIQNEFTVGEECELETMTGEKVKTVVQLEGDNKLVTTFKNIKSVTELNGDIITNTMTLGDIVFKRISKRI

B1: fatty acid binding protein-1 (FABP1), endogenous in Huh7 and HepG2 cells (protein, UniProt P07148 1-127)
chain: MSFSGKYQLQSQENFEAFMKAIGLPEELIQKGKDIKGVSEIVQNGKHFKFTITAGSKVIQNEFTVGEECELETMTGEKVKTVVQLEGDNKLVTTFKNIKSVTELNGDIITNTMTLGDIVFKRISKRI

What was measured:
[1] = biological target: T1, fatty acid binding protein-1 (FABP1), endogenous in Huh7 and HepG2 cells (human (endogenous in Huh7 and HepG2)); test: co-IP; lysates of HepG2 cells treated with AGR2 or AGR2-C81A expression plasmids; primary antibody and agarose beads overnight at 4 °C; immunoblot
[2] = biological target: T2, His-FABP1 protein (purified recombinant FABP1); test: pull-down; His pull-down: about 50 μg 6×His fusion protein held on Co-Sepharose beads, 4 °C 2 h, 20 mM Tris pH 8.0, 150 mM NaCl; washed with 10 mM imidazole, eluted with 250 mM imidazole; Coomassie staining and western blotting; both purified
[3] = biological target: T2, His-FABP1 protein (purified recombinant FABP1); test: pull-down; His pull-down as a3, in the presence of the reducing agent β-mercaptoethanol (β-ME); both purified
[4] = biological target: Anterior gradient 2 (AGR2), endogenous in Huh7 cells (human (endogenous in Huh7)) (UniProt O95994); test: co-IP; Huh7 cell lysates (1.2 mg protein), endogenous proteins; precleared with protein A/G Plus-Agarose and non-specific IgG, primary antibody and agarose beads overnight at 4 °C; immunoblot

Molecule | binding [2] | also measured
AGR2 from an expression plasmid in HepG2 cells (from UniProt O95994 21-175) |  | binding [1]: binds
AGR2 mutant lacking the PDI motif (amino acid residues 101-175) (from UniProt O95994 101-175) (domain or fragment) | no binding | 
AGR2 truncation mutant containing PDI and KTEL motifs (amino acid residues 81-175) (from UniProt O95994 81-175) (domain or fragment) | binds | 
AGR2-C81A from an expression plasmid in HepG2 cells (from UniProt O95994 21-175) |  | binding [1]: no binding
GST-AGR2 fusion protein (recombinant full-length AGR2) (from UniProt O95994 1-175) | binds | binding [3]: no binding (condition: with β-mercaptoethanol (β-ME))
recombinant AGR2-C81A mutant (His pull-down) (from UniProt O95994 1-175) | no binding | 
B1 |  | binding [4]: binds
